One may read the % Inhibition as the relative decrease from the control value, in per cent.

The campaign covered roughly 150,000 compounds. About 540 (0.36%) showed an effect of 50% or more. Some of the results follow.

This assay has as its system Plasmodium falciparum. The experiment in a line: Primary screen in NF54 nanoGlo assay, in single point, at 2uM, 72h; a lower Z score goes with more inhibition. The class given is functional, Erythrocyte. The note with it: timepoint 72 hour.
Turning to `CC(C)c1cc(N(C)Cc2cccnc2)nc(N)n1`, the “% Inhibition” value is -4% and the Z score is 0.41.
Regarding `Cn1ncc2c1CCC[C@@H]2Nc1nccc(C(F)(F)F)n1`, the “% Inhibition” value was found to be 1% and the Z score is -0.13.
In the same order, the values of `C[C@H](NC(=O)c1ccc(CN2C(=O)CNC2=O)cc1)c1ccccc1` are -15% and 2.79.
On to `Cc1cnc(C(=O)Nc2ccnn2Cc2cccs2)cn1`, for which the “% Inhibition” value is -3% and the Z score amounted to 0.45.
On to `Cc1cccc(NC(=O)N2CCCC[C@H]2c2nn(C)c3c2COCC3)c1C`, for which the “% Inhibition” value is -10% and the Z score is on record as 0.95.
As for `CN(C[C@H]1COc2ccccc2O1)c1cc(C2CCNCC2)ncn1`, the “% Inhibition” value was 6% and the Z score was -0.96.
Take `NC(=O)NCc1ccc(NC(=O)[C@H](Oc2ccccc2)c2ccccc2)cc1`: the “% Inhibition” value worked out at 11% and the Z score is listed as -1.5.
On to `CN(C(=O)c1ccc(C#N)cn1)c1ccc(Cl)cn1`, for which the “% Inhibition” value is on record as -8% and the Z score was found to be 1.55.
Regarding `COCCOCc1cccc(-c2n[nH]c3ncnc(N)c23)c1`, the “% Inhibition” value was 2% and the Z score is -0.22.
Turning to `COc1cccc(CC(=O)N2CCc3nc(N4CCCCC4)nc(N(C)C(C)C)c3C2)c1`, the “% Inhibition” value is recorded as -2% and the Z score amounted to 0.36.
On to `CC(=O)c1cccc(NC(=O)Cn2cc(C(=O)c3ccncc3)c(=O)c3cc(Br)ccc32)c1`, for which the “% Inhibition” value is 6% and the Z score is given as -0.95.
As for `CCn1nc(C(=O)Nc2cccc(OC)c2)cc1-c1cc(C)sc1C`, the “% Inhibition” value is -2% and the Z score turned out to be 0.36.
Turning to `Cc1cc([C@@H]2CCCCCN2S(=O)(=O)c2ccc(F)cc2)on1`, the “% Inhibition” value is given as 5% and the Z score is given as -0.72.
Turning to `O=C(c1cnccn1)N1CC[C@H](c2nc(-c3ccncc3)no2)C1`, the “% Inhibition” value was -13% and the Z score was 1.51.
For `CC[C@H](C)N1CCC(=O)N(CC(=O)c2[nH]c(C)c(C(C)=O)c2C)C1=O`, in that order: 6% and -0.85.
`COCC(=O)N(CCn1ccnc1C)C1CCN(C(=O)C2(C)CCCCC2)CC1`: the “% Inhibition” value is 0% and the Z score came to 0.06.
Turning to `Cc1ccc(NC(=O)c2cc(N3C(=O)C4CC=CCC4C3=O)ccc2N2CCCCC2)cc1` (stereo not given), the “% Inhibition” value is -16% and the Z score stood at 2.17.
With `Oc1ccc(-c2cc(O)cc(CC[C@H]3CCCCN3)c2)nc1`, the “% Inhibition” value is given as -14% and the Z score was 1.77.
`COc1cc(C)sc1C(=O)NCCN1CCCCC1`: the “% Inhibition” value is recorded as -9% and the Z score came out at 1.86.
Regarding `CCOC1CC1C(=O)N1CCCC(Cn2cncn2)C1` (stereo not given), the “% Inhibition” value is -8% and the Z score was 1.17.
Consider `Cc1cc2nc[nH]c2c(NC(=O)CCc2cc3n(n2)CCNC3)c1C`, for which the “% Inhibition” value was -7% and the Z score is 1.44.
As for `O=C(c1ccc2nccn2c1)N1CCN(c2ccc(F)cc2)CC1`, the “% Inhibition” value is -11% and the Z score was found to be 1.47.
`CN(CC1(c2ccccc2)CC1)C(=O)NCc1ccc(C(N)=O)o1`: the “% Inhibition” value was -6% and the Z score stood at 0.87.
With `O=C(NCCC1=CCCCC1)c1cc(OCc2ccccc2)no1`, the “% Inhibition” value is on record as -12% and the Z score is listed as 2.3.
On to `Cc1n[nH]c(C)c1CN1CCC=C(F)C1`, for which the “% Inhibition” value is on record as -11% and the Z score stood at 2.21.
On to `COc1cn(CC(=O)NCCc2ccccc2)c(CN2CCOCC2)cc1=O`, for which the “% Inhibition” value is -5% and the Z score amounted to 0.94.
With `O=C(CNC(=O)NCc1ccco1)NCCc1cc2ccccc2o1`, the “% Inhibition” value was 2% and the Z score is listed as -0.17.
On to `Cc1cccc(CNC(=O)c2c(C)sc3ncnc(N4CCCC4)c23)c1`, for which the “% Inhibition” value is -11% and the Z score was determined as 1.7.
Take `CC1c2cccn2CCN1CC(=O)NC(C)(C#N)C1CC1` (stereo not given): the “% Inhibition” value is -8% and the Z score is 1.03.
For `COCc1ccnc(NC(=O)c2cncc(N3CCOCC3)c2)c1`, the “% Inhibition” value is recorded as -7% and the Z score came to 1.42.
On to `O=C(c1nc(C2CC2)no1)N1CC(c2nc(-c3ccccc3)no2)C1`, for which the “% Inhibition” value is reported as -21% and the Z score is on record as 2.32.
For `NC(=NCc1cccs1)C1CCCC1`, in that order: -4% and 0.52.
In the same order, the values of `CCCc1nnsc1C(=O)N[C@H]1CCC(=O)N(C)C1` are -1% and 0.17.
For `Cc1c(CN(C)Cc2cnn(C)c2C2CC2)cnn1C`, the “% Inhibition” value is -2% and the Z score came out at 0.3.
Turning to `Cc1csc(-c2ccc(C(=O)NCCn3ccnc3)c(N3CCCCC3)n2)c1`, the “% Inhibition” value is -1% and the Z score came to 0.13.
For `COCCN1CC2(CCC1=O)CCN(C(=O)Nc1ccccc1OC)CC2`, the “% Inhibition” value is on record as 9% and the Z score is listed as -1.63.
Take `Cc1nc(CN2CC[C@H](NC(=O)c3scnc3C)[C@@H](O)C2)cs1`: the “% Inhibition” value was -4% and the Z score was determined as 0.69.
Consider `COc1ccc(Oc2ccc(Cl)cc2NC(=O)N2CC3(C2)CC3(F)F)cc1`, for which the “% Inhibition” value is on record as 9% and the Z score was -1.56.
For `Cc1nc(O)c(Br)cc1C(=O)NC1CC(F)(F)C1`, in that order: -6% and 0.73.
Consider `CCc1noc(NC(C)=O)c1-c1ccc(OC)c(S(=O)(=O)NC2CCCCC2)c1`, for which the “% Inhibition” value is listed as -7% and the Z score worked out at 1.07.
As to `O=C(Nc1nc2ccc(S(=O)(=O)N3CCCCC3)cc2s1)C1CC2C=CC1C2` (stereo not given), the “% Inhibition” value is -18% and the Z score was found to be 2.44.
Take `O=C(Nc1sc2c(c1C(=O)N1CCCCC1)CCCC2)[C@@H]1CCCO1`: the “% Inhibition” value is on record as -7% and the Z score is 1.23.
`COCCC(=O)N1CC(N(Cc2ccncc2)CC2CC2)C1`: the “% Inhibition” value is -5% and the Z score is 0.98.
On to `CN(Cc1ccnc2ccccc12)C(=O)c1cccc([C@H]2CCCNC2)c1`, for which the “% Inhibition” value was 6% and the Z score was -1.12.
In the case of `CCCN(CCC)C(=O)c1csc(CN(CCC(c2ccccc2)c2ccccc2)Cc2ccc(Cl)cc2)n1`, the “% Inhibition” value is on record as -10% and the Z score came to 1.41.
`CN[C@H]1CCCN(C(=O)CN2CCNCC2=O)C1`: the “% Inhibition” value is listed as -7% and the Z score worked out at 1.2.
In the case of `C[C@@H](C1CCN(c2noc(-c3ccccc3)n2)CC1)N1CCN(C)CC1`, the “% Inhibition” value worked out at 1% and the Z score is reported as -0.26.
As for `O=C(Nc1ccsc1)N1CCN(Cc2ccccc2)CC1`, the “% Inhibition” value is -6% and the Z score came out at 0.83.
For `Cc1ccccc1-c1ncc(-c2nccn2CCc2n[nH]c(=O)[nH]2)s1`, the “% Inhibition” value was -12% and the Z score is 1.35.
Regarding `C[C@H]1CCCN1C(=O)c1ccc(S(=O)(=O)NCc2ccncc2)cc1`, the “% Inhibition” value came out at 6% and the Z score is -0.92.
As to `Cc1cccc(C)c1OCC(=O)Nc1ccc(-n2cnnn2)cc1`, the “% Inhibition” value is -6% and the Z score is on record as 0.95.
As for `C[C@@H](C(=O)OC(C)(C)C)c1nc(-c2nccc3ccccc23)no1`, the “% Inhibition” value is reported as -8% and the Z score amounted to 1.02.
For `CC(C)(C)OC(=O)N[C@H]1CCN(Cc2ccc(C#N)cc2)C1`, the “% Inhibition” value is recorded as -13% and the Z score is 1.81.
With `CCOC(=O)CNC(=O)NCCn1nnc2cc(C(=O)NC3CCCC3)ccc21`, the “% Inhibition” value is -3% and the Z score was found to be 0.44.
For the compound `C[C@H](Oc1ccc(Cl)cc1C(N)=O)c1noc(-c2ccccc2)n1`, the “% Inhibition” value is listed as -16% and the Z score is 2.14.
In the same order, the values of `O=C(C#Cc1ccc2c(c1)OCO2)NC(c1ccccc1)c1ccccc1` are 0% and -0.01.
For `O=C1N(Cc2ccc(F)cc2)CCC[C@@]1(O)CN1CCCO1`, in that order: -5% and 0.85.
On to `O=C(Nc1ccc(OC(F)(F)F)cc1)C1CNC1`, for which the “% Inhibition” value is on record as -12% and the Z score is on record as 1.42.
With `CCN(Cc1nn(-c2ccc(F)cc2)c2c1CN(Cc1ccc(F)cc1)CC2)C(=O)c1cccc(Cl)c1`, the “% Inhibition” value came to 9% and the Z score is -1.17.
With `COc1ccc(-c2nc3ccc(C(=O)NCc4ccccc4)cc3nc2-c2ccc(OC)cc2)cc1`, the “% Inhibition” value stood at 1% and the Z score is -0.15.
On to `Cc1cc(NC(=O)c2ccc(C)s2)no1`, for which the “% Inhibition” value is -6% and the Z score is given as 0.89.
`Cc1csc([C@H](C)N(C)C(=O)c2ccccc2-c2nnn[nH]2)n1`: the “% Inhibition” value is on record as -6% and the Z score was 0.96.
On to `CCO[C@H]1CN(Cc2cc3ccccc3s2)C[C@@H]1O`, for which the “% Inhibition” value is -4% and the Z score came out at 0.55.
On to `CC[C@H](O)Cn1nc(-c2csc(C)n2)nc1COC`, for which the “% Inhibition” value is listed as 15% and the Z score is listed as -1.96.
Regarding `COC(=O)CC[C@]1(C(F)(F)F)N=C(C(C)C)C(=O)O1`, the “% Inhibition” value was -8% and the Z score amounted to 0.7.
For `O[C@H]1CCN(c2cc(C(F)(F)F)nc3c(F)cc(Br)cc23)C1`, the “% Inhibition” value is -10% and the Z score worked out at 1.02.
For the compound `COCCn1cncc1CN1CCCC2(CCOCC2)C1`, the “% Inhibition” value is -12% and the Z score was 2.34.
As to `C[C@@H](c1ccc(N2CCCS2(=O)=O)cc1)N(C)Cc1cn(C(C)(C)C)nn1`, the “% Inhibition” value was determined as 1% and the Z score was -0.14.
For `O=C(Cn1c2c(c(=O)n3nc(-c4ccccc4)nc13)CCC2)Nc1cccc(F)c1`, the “% Inhibition” value is on record as -3% and the Z score is 0.32.
In the same order, the values of `COc1nnc(NC(=O)N2CCC[C@H]2c2nc(C)cs2)s1` are -10% and 2.07.
Take `Cc1ccc(-c2cc(-c3c(O)nc4ccc(C)cc4c3-c3ccccc3)nc3ccccc23)cc1`: the “% Inhibition” value is listed as -37% and the Z score amounted to 4.38.
On to `Cc1nnc(-c2coc(S(=O)(=O)N3CCN(C)CC3)c2)o1`, for which the “% Inhibition” value is reported as -12% and the Z score is on record as 1.57.
`NS(=O)(=O)CCN1CCN(C(=O)C2CC2C2CCCCC2)CC1` (stereo not given): the “% Inhibition” value was -47% and the Z score was 5.46.
For the compound `Cc1ccc(C(=O)N2CC[C@H](N(C)C)[C@H](CCCO)C2)c(O)c1`, the “% Inhibition” value is recorded as -10% and the Z score amounted to 1.01.
With `CCn1ncc(C)c1NC(=O)N1CCO[C@H](C(=O)OC)C1`, the “% Inhibition” value was -2% and the Z score is 0.25.
In the same order, the values of `CCc1cnc([C@H](C)NCc2nnc(C)o2)s1` are 5% and -0.62.
Turning to `N#Cc1cccnc1N1CCn2cncc2C1`, the “% Inhibition” value is listed as -10% and the Z score is 0.89.
For the compound `COC1(OC)CCOC[C@@H]1NCc1ccc(OC(F)F)cc1`, the “% Inhibition” value is 1% and the Z score was -0.21.
Regarding `Cn1nccc1-c1cncc(CNC(=O)Cn2nnc3ccccc32)c1`, the “% Inhibition” value worked out at 25% and the Z score was -3.33.
Turning to `O=C(Cc1cc(Cl)ccc1Cl)NCC1(O)CCOCC1`, the “% Inhibition” value is given as -4% and the Z score is 0.44.
Consider `C[C@H](N)c1ccc(NC(=O)c2c(C(F)F)nc3n2CCCC3)cc1`, for which the “% Inhibition” value is -5% and the Z score is 0.58.
As for `CN1C(=O)CCCC[C@H]1C(=O)N1CCN(Cc2ccc3c(c2)OCO3)CC1`, the “% Inhibition” value is given as -1% and the Z score is listed as 0.19.
As for `NC(=O)c1c(F)cccc1N1CCC(OCC2CC2)CC1`, the “% Inhibition” value is on record as -1% and the Z score is 0.22.
On to `O=C(CN(Cc1cccc(O)c1)C1CCC(O)CC1)Nc1ccc(Br)cc1` (stereo not given), for which the “% Inhibition” value was determined as 1% and the Z score is reported as -0.12.
For the compound `CCN(C)c1ccc(CN[C@H]2CCCOc3c(F)cccc32)cn1`, the “% Inhibition” value is on record as -1% and the Z score was 0.16.
